# Values joined by “and” are separate entries in the source; they are usually repeats but may differ in a detail not shown here. Identical values can stand only once. Hit rate of the full screen: of about 350,000 compounds, about 31,000 (8.9%) were called active. Inconclusive means that the source gave no clear call. Such entries were picked first, then a sample of the others. Calls follow the shape of the dose curve; as a rule, active = well fitted inhibition curve with a large enough effect; inconclusive = small, poorly fitted or top-dose-only effect; inactive = no such curve, though single readings can be large or run the other way. Where the call is inconclusive, the potency comes from a doubtful curve fit. The source holds several records for some structures; these can differ, active in one and inactive in another.
# Molecular target: Histone-lysine N-methyltransferase EHMT2 (Homo sapiens) (UniProt Q96KQ7)
# Test: qHTS Assay for Inhibitors of Histone Lysine Methyltransferase G9a; also: nearly all actives have a fitted effect of over 75% in size
# Details: G9a H3K9 monomethylation, AlphaScreen, 2 h; activity, negative = inhibition: at 59 µM (top of the series) unless noted
# Summary of the method: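 Step 1: enzyme (final 20 nM) with compound, 15 min RT. Step 2: substrate peptide 500 nM and SAM 20 uM, 2 h RT. Step 3: anti-H3K9me1 antibody and AlphaScreen beads, 10 min, then plate read.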
# % is scaled to controls: 0 for no effect and ±100 for the full control effect; potency is read from the fitted curve at half-maximal effect; tags tell the direction and shape of the fitted curve.
# Sequence of UniProt Q96KQ7 (Q96KQ7 whole entry, looked up): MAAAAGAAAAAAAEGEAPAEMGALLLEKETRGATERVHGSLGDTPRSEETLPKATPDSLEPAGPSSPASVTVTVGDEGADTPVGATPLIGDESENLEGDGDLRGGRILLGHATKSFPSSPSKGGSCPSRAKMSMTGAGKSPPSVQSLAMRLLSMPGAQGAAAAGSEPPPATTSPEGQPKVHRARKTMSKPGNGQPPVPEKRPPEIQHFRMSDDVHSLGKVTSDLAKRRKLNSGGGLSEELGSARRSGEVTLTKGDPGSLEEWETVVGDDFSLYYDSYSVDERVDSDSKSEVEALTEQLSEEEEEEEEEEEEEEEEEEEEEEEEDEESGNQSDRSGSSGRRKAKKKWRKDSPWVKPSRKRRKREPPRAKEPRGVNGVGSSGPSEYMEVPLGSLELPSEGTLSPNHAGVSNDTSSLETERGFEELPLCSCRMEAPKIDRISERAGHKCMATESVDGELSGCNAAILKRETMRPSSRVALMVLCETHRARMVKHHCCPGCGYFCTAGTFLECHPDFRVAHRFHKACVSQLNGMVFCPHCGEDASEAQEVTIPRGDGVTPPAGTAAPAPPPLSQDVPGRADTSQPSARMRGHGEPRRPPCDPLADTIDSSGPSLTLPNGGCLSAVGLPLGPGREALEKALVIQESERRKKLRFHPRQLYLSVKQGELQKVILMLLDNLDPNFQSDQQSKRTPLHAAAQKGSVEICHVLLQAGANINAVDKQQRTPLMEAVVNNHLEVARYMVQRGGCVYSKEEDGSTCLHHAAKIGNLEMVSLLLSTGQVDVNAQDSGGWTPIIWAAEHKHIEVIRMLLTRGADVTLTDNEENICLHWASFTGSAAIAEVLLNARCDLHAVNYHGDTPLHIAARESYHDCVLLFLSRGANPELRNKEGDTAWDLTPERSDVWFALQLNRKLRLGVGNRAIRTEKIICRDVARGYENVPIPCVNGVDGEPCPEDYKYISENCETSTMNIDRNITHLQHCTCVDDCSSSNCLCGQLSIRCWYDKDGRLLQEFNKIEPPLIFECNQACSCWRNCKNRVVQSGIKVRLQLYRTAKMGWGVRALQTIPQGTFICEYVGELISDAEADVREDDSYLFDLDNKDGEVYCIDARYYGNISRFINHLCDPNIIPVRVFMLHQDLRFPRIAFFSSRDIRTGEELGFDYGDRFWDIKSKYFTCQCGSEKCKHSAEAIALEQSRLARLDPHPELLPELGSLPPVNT
Structure (SMILES),Potency,"activity, negative = inhibition"
Cc1nc(=O)c(-c2ccccc2)c(C)n1-c1ccc(Br)cc1,"inconclusive: 89.1 µM [inhibitor, single point]",–
O=C(NCc1nc2ccccc2[nH]1)c1cc2ccccc2oc1=O,"inconclusive: 89.1 µM [inhibitor, single point]",–
CCC1Nc2ncnc(N3CCN(c4ccccc4)CC3)c2N(Cc2ccc(Br)cc2)C1=O (stereo not given),"inconclusive: 7.08 µM [inhibitor, single point]",–
COC(=O)c1cccc(Nc2c(-c3ccc(O)c(OC)c3)nc3nc[nH]n23)c1,"inconclusive: 39.8 µM [inhibitor, partial curve, poor fit]",–
Cn1c(-c2ccc3ccccc3n2)[n+](C)c2ccccc21,"inconclusive: 50.1 µM [inhibitor, partial curve]",–
COCCn1c(C)cc(O)c(C(c2ccccc2)N2CCN(C)CC2)c1=O (stereo not given),"inconclusive: 39.8 µM [inhibitor, single point]",–
CC(C)NC(=O)N1CC[C@@]2(CCCN(C(=O)c3ccncc3)C2)C1,"inconclusive: 6.31 µM [inhibitor, single point]",–
COC(=O)\C(C(C)=O)=C(/C=C/C=C/C=C/N(C)C)N(C)C,active: 31.6 µM,–
O=C(CSC1CCCCC1)N1CCN(c2ccccc2)CC1,"inconclusive: 2.82 µM [inhibitor, partial curve, poor fit]",–
CCCCOc1ccc(CNC(=O)C2CCN(c3nnc(-n4cccc4CNc4ccc(C)cc4)s3)CC2)cc1,–,inactive: 4.22%
O=c1c(-c2n[nH]c(=S)n2-c2ccccc2)cccn1Cc1cccc(Cl)c1,active: 3.55 µM,–
CN(CC(=O)Nc1ccc(F)c(F)c1F)C(=O)C1CCN(C(=O)Nc2ccccc2)CC1,–,inactive: 0.758% [at 102 µM]
CCOC(=O)c1oc2ccccc2c1CN1CCOCC1,–,inconclusive: -59% [inhibitor]
CC(C)(/C=N/O)/[N+]([O-])=C/c1ccccc1C(F)(F)F,"inconclusive: 20 µM [inhibitor, single point]",–
O=C(OCC(=O)N1CCC(Cc2ccccc2)CC1)c1ccc(CO)cc1,–,inactive: 12.3% [at 12.7 µM]
CCCCn1c(N)c(N(CC(C)C)C(=O)CCNC(=O)c2ccc([N+](=O)[O-])cc2)c(=O)[nH]c1=O,"inconclusive: 89.1 µM [inhibitor, single point]",–
CCc1nnc(NC(=O)C2(C)COC(c3ccc(OC)cc3)OC2)s1 (stereo not given),–,inactive: -44.9% [at 102 µM]
COc1cc(CNc2ccccc2)c([N+](=O)[O-])cc1OC,active: 25.1 µM,–
CC(C)C(C)NC(=O)COC(=O)c1cccc(C(=O)OCC(=O)NC(C)C(C)C)n1 (stereo not given),active: 10 µM,–
COc1cccc(NC(=O)CCNS(=O)(=O)c2ccc(Br)s2)c1,"inconclusive: 79.4 µM [inhibitor, single point]",–
CN(CC(=O)Nc1ccccc1Cl)C(=O)COC(=O)c1nc(Cl)ccc1Cl,"inconclusive: 89.1 µM [inhibitor, partial curve, poor fit]",–
O=C(N/N=C/c1cc([N+](=O)[O-])ccc1O)c1cc(-c2ccccc2)nc2ccccc12,"inconclusive: 89.1 µM [inhibitor, single point]",–
O=C(O)CCC(=O)N1CCc2cc(S(=O)(=O)NC3CCCc4ccccc43)ccc21 (stereo not given),"inconclusive: 0.282 µM [inhibitor, full curve, poor fit]",–
CCOC(=O)CSc1nc(N)c(C#N)c(-c2ccc(OCC)cc2)c1C#N,active: 44.7 µM,–

Structure (SMILES),Potency,"activity, negative = inhibition"
CC1CCCCN1CC(=O)Nc1ccc2c(c1)OC(F)(F)O2 (stereo not given),–,inactive: -1.29% [at 102 µM]
COc1cccc(C(=O)NCC(c2ccc(N(C)C)cc2)N2CCCC2)c1OC (stereo not given),"inconclusive: 31.6 µM [inhibitor, partial curve, poor fit]",–
Cc1ccc(N2C(=O)CSC23C(=O)N(CC(=O)NC2CCCCC2)c2ccccc23)cc1 (stereo not given),–,inactive: -23.3%
CCc1cccc(CC)c1-n1c(SCC(=O)N2CCc3ccccc3C2)nnc1-c1cccnc1,"inconclusive: 28.2 µM [inhibitor, single point]",–
CCOc1ccc(-c2nnc(SCC(=O)NCCC(C)C)nc2-c2ccc(OCC)c(OC)c2)cc1OC,"inconclusive: 39.8 µM [inhibitor, single point]",–
COc1cccc(-n2ccn(CC(=O)NCCc3ccccc3)c(=O)c2=O)c1,–,inactive: 88.7%
O=C(Cc1ccccc1)NNC(=O)c1ccc(NC(=O)c2ccccc2)cc1,"inconclusive: 79.4 µM [inhibitor, single point]",–
CCOc1ccc(CNc2ccc3c(c2)ncn3C)cc1,"inconclusive: 1.78 µM [inhibitor, partial curve, poor fit]",–
CC(NCc1ccc(OCc2ccc(Cl)cc2)cc1)C(O)c1ccccc1 (stereo not given),"inconclusive: 89.1 µM [inhibitor, partial curve, poor fit]",–
O=C(NCC(c1cccs1)N1CCOCC1)c1cc(Cl)ccc1[N+](=O)[O-] (stereo not given),–,inactive: 3.96% [at 0.501 µM]
O=c1c2ccccc2nnn1CSc1ccccc1,–,inactive: 36%
O=S(=O)(Nc1ccc(S(=O)(=O)Nc2nccs2)cc1)c1ccc2c(c1)OCCO2,"inconclusive: 4.47 µM [inhibitor, partial curve, poor fit]",–
O=C(NCc1ccccn1)c1ccc2nc(-c3ccco3)c(-c3ccco3)nc2c1,"inconclusive: 0.794 µM [inhibitor, full curve, poor fit]",–
CCc1ccc2oc(-c3cc(N)ccc3O)nc2c1,"inconclusive: 1.41 µM [inhibitor, full curve, poor fit]",–
CN1CCN(CCOc2ccc(Cl)c(Cl)c2)CC1,active: 10 µM,–
O=c1[nH]nc(SCc2nc3ccccc3s2)n1C1CC1,active: 7.94 µM,–
Cc1ccc(S(=O)(=O)c2nnn3c2nc(N2CCN(c4ccc(F)cc4)CC2)c2cc(Cl)ccc23)cc1C,–,inactive: 7.8%
COc1c(C)cccc1C(=O)NC(=S)Nc1ccccc1N1CCCC1,active: 31.6 µM,–
CC(OC(=O)c1ccc(-n2cnnn2)cc1)C(=O)NCc1ccccc1 (stereo not given),–,inactive: -1.43% [at 102 µM]
O=C(OCC(=O)c1c[nH]c2ccccc12)c1ccc([N+](=O)[O-])s1,active: 44.7 µM,–
O=C(Cc1cccs1)N1CCN(c2ccc([N+](=O)[O-])cc2)CC1,"inconclusive: 35.5 µM [inhibitor, single point]",–
CCc1ccc(NC(=O)C2CCN(C(=O)N3CC(CC)Oc4ccccc43)CC2)cc1 (stereo not given),"inconclusive: 6.31 µM [inhibitor, single point]",–
O=C(NC1CC2CCCC(C1)N2Cc1ccccc1)C1CCCCC1 (stereo not given),–,inactive: 16.7% [at 102 µM]
Cc1cc(C(=O)N2CCN(C(c3ccccc3)c3ccccc3)CC2)no1,–,inconclusive: -58.5% [inhibitor]

Structure (SMILES),Potency,"activity, negative = inhibition"
O=C1c2ccccc2C2=Nc3ccccc3SC(c3ccc(Cl)cc3)C12 (stereo not given),active: 11.2 µM,–
CN(C)CCCN(C(=O)c1ccco1)c1nc2ccc(F)cc2s1,"inconclusive: 10 µM [inhibitor, partial curve, poor fit]",–
COc1ccc(C(C)=O)cc1COC(=O)c1ccc(S(=O)(=O)N2CCOCC2)cc1,"inconclusive: 1.26 µM [inhibitor, single point]",–
COc1ccc(Cc2nnc(NC(=O)c3cccc([N+](=O)[O-])c3)s2)cc1,–,inactive: -23.5% [at 102 µM]
CCc1c(C)sc(NC(=O)OC)c1C(=O)N1CCCCC1,"inconclusive: 0.199 µM [inhibitor, full curve, poor fit]",–
COc1cc2c(cc1OC)C(c1ccc(C)cc1)NC(=O)C2 (stereo not given),–,inactive: 25.4%
CO/N=C(\C(=O)N[C@@H]1C(=O)N2C(C(=O)O)=C(COC(C)=O)CS[C@H]12)c1csc(N)n1 (stereo in doubt),inactive and active: 44.7 µM,–
Cc1cccc(NC(=O)N2CCc3c(sc4c3CCCC4)C2c2ccc(F)cc2)c1 (stereo not given),–,inactive: -7.83%
COc1cccc(C(=O)Nc2ccc(NC(C)=O)cn2)c1,–,inactive: -3.78%
CC(=O)Nc1ccc(NC(=O)C(C)OC(=O)C2(c3ccc(F)cc3)CCCC2)cc1 (stereo not given),–,inactive: -32.6% [at 102 µM]
CCc1nnc(NC(=O)c2cc(C)nc3ccccc23)s1,"inconclusive: 79.4 µM [inhibitor, partial curve, poor fit]",–
CCOC(=O)c1sc(C)nc1C1CCN(C(=O)OCC)CC1,active: 44.7 µM,–
CCC(C)C(NC(N)=O)C(=O)Nc1ccc(C)c(Cl)c1 (stereo not given),active: 8.91 µM,–
CC1=CC(C)(C)Nc2ccc(OC(=O)c3ccco3)cc21,"inconclusive: 25.1 µM [inhibitor, single point]",–
Cc1nccn1CCCNC(=O)CC1C(=O)NCCN1Cc1ccccc1C(F)(F)F (stereo not given),"inconclusive: 39.8 µM [inhibitor, partial curve, poor fit]",–
COc1ccc(-c2nc(-c3ccccc3)c(-c3ccc(O)cc3)[nH]2)cc1,"inconclusive: 20 µM [inhibitor, single point]",–
O=C(COC(=O)c1ccc(F)cc1F)Nc1cccc(S(=O)(=O)N2CCOCC2)c1,"inconclusive: 39.8 µM [inhibitor, partial curve, poor fit]",–
Cc1[nH][nH]c(=O)c1C(c1ccc(Cl)cc1)c1c(C)[nH][nH]c1=O,–,inactive: -2.36% [at 102 µM]
CCC(c1nnnn1C(C)(C)CC)N(CCCN1CCOCC1)Cc1cc2cccc(C)c2[nH]c1=O (stereo not given),"inconclusive: 39.8 µM [inhibitor, single point]",–
Cc1ccc(C(=O)C[n+]2cc(Br)cc(Br)c2)cc1,"inconclusive: 89.1 µM [inhibitor, partial curve, poor fit]",–
CNC(=S)N(CCO)Cc1cc2cc3c(cc2[nH]c1=O)OCO3,–,inactive: 3.88% [at 2.33 µM]
CC(C)(C)c1csc(NC(=O)C2COc3ccccc3O2)n1 (stereo not given),"inconclusive: 89.1 µM [inhibitor, single point]",–

# — PubChem BioAssay AID504332 (National Center for Advancing Translational Sciences (NCATS), 2011)
